Assay results taken from the BET-seq Pho4 binding data (Le et al. 2018).
This is one part of the list. The energies were worked out here from pooled read counts, against the library average; single values are noisy.

What follows are sequences tested against T1, Pho4 (S. cerevisiae) (UniProt P07270) (assay: relative binding free energy (BET-seq); higher = weaker binding). Conditions: reference: library average.
T1 sequence: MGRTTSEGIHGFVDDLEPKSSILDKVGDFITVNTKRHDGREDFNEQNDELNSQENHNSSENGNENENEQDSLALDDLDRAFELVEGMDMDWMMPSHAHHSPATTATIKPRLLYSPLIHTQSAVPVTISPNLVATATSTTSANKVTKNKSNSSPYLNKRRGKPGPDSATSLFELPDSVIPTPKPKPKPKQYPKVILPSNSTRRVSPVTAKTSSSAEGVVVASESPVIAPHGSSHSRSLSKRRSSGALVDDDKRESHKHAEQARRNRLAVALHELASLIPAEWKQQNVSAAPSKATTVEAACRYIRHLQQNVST

Sequence	relative binding free energy
TTTAGCACGTGATGAA	0.01 kcal/mol
TGTAGCACGTGACGGT	0.04 kcal/mol
TTGCTCACGTGAGGCG	0.46 kcal/mol
GGTTTCACGTGGTTGT	0.31 kcal/mol
AGCGGCACGTGGGCCG	-0.15 kcal/mol
GTCTCCACGTGGAGGG	0.06 kcal/mol
ATCAACACGTGTGGTG	0.02 kcal/mol
GTACGCACGTGGTTGA	-0.19 kcal/mol
GCTGTCACGTGGCTTG	-0.03 kcal/mol
AGTCTCACGTGGTATG	0.05 kcal/mol
TGTTCCACGTGTGAGG	0.15 kcal/mol
TGGCGCACGTGGCGTA	-0.23 kcal/mol
TGATACACGTGGCAGG	-0.07 kcal/mol
AATGGCACGTGTAGGC	-0.08 kcal/mol
GTACTCACGTGGGGTT	0.1 kcal/mol
GGGGGCACGTGCATGA	-0.16 kcal/mol
TGTTTCACGTGGAGTT	0.33 kcal/mol
ATTGACACGTGGGTGT	-0.07 kcal/mol
TAAATCACGTGTCTGG	0.24 kcal/mol
GTCCTCACGTGGGAGG	0.24 kcal/mol
TGCGGCACGTGTAGGT	-0.21 kcal/mol
ATGGGCACGTGTGTTC	-0.09 kcal/mol
AGACGCACGTGAGTGT	0.08 kcal/mol

Sequence	relative binding free energy
ATCGGCACGTGTATTT	0.1 kcal/mol
CAAGGCACGTGGGGAG	-0.19 kcal/mol
CCGTGCACGTGGCTGG	-0.05 kcal/mol
GTGCTCACGTGAGTGT	0.45 kcal/mol
AGATGCACGTGTGAAA	0.24 kcal/mol
TAAATCACGTGTTGAT	0.04 kcal/mol
GTTGTCACGTGGGCGA	0.06 kcal/mol
TGCTGCACGTGTGTAT	-0.06 kcal/mol
GGTTGCACGTGCATGC	0.03 kcal/mol
AGGTACACGTGTGTTT	0.12 kcal/mol
GTGTTCACGTGATGCT	0.28 kcal/mol
TGGTACACGTGGGCAA	-0.15 kcal/mol
GATGGCACGTGCTGTA	-0.12 kcal/mol
GCGCTCACGTGGGGAG	0.12 kcal/mol
CATGGCACGTGAAAGG	0.07 kcal/mol
GAGATCACGTGTTGTT	0.29 kcal/mol
AGGTCCACGTGATGTT	-0.02 kcal/mol
CCGGGCACGTGGATTG	-0.06 kcal/mol
TTGGGCACGTGAATCG	0.25 kcal/mol
GTTGGCACGTGGGTTC	-0.15 kcal/mol
GTGTACACGTGTAAGA	0.24 kcal/mol
TTGTTCACGTGCTTGC	0.33 kcal/mol
TGGGTCACGTGGTAAA	0.08 kcal/mol

Sequence	relative binding free energy
TATTACACGTGGGGAT	0.04 kcal/mol
TTTTACACGTGATACG	0.14 kcal/mol
GGTATCACGTGTGCTA	0.26 kcal/mol
CGTATCACGTGTGATG	0.19 kcal/mol
TTTCACACGTGTTTTG	0.15 kcal/mol
TTGCGCACGTGTTTCT	-0.1 kcal/mol
AGTTGCACGTGTCGTG	0 kcal/mol
GGTTACACGTGACGTG	0.16 kcal/mol
AGTGTCACGTGCGAGT	-0.09 kcal/mol
CAGAGCACGTGCGGGT	-0.15 kcal/mol
GAGGGCACGTGGGGTT	-0.07 kcal/mol
GAAGTCACGTGTAGCG	0.28 kcal/mol
GGCGTCACGTGGTGAT	0.21 kcal/mol
AGAAACACGTGTAGTG	0.06 kcal/mol
CGATTCACGTGGAGTT	0.2 kcal/mol
GTAAACACGTGGTATG	-0.01 kcal/mol
TTGAACACGTGGGCAG	-0.1 kcal/mol
TGCAGCACGTGGTGGT	-0.08 kcal/mol
TGTGGCACGTGTTGAG	-0.15 kcal/mol
TGTTTCACGTGACTAT	0.28 kcal/mol
GTGTACACGTGGGTGC	-0.07 kcal/mol
TAGATCACGTGTTTTC	0.18 kcal/mol
AGTTTCACGTGCCGGT	0.22 kcal/mol

Sequence	relative binding free energy
TTTGTCACGTGTTGAG	0.04 kcal/mol
TTATTCACGTGTTGGG	0.24 kcal/mol
CTAGTCACGTGTTAGA	0.16 kcal/mol
GGTCTCACGTGGTTGG	0.26 kcal/mol
CTTTTCACGTGGGGCG	0.1 kcal/mol
TCATTCACGTGGGGCT	0.07 kcal/mol
GTCCGCACGTGCGTGG	-0.08 kcal/mol
TCGTGCACGTGGAAGT	0.03 kcal/mol
AGAACCACGTGTGGTG	0.05 kcal/mol
TCTTGCACGTGGTGCA	-0.07 kcal/mol
AGGGGCACGTGGTCAA	-0.15 kcal/mol
TCGGTCACGTGGGCCG	-0.05 kcal/mol
AACGGCACGTGGGGTG	-0.28 kcal/mol
AGGGTCACGTGCACGT	0.04 kcal/mol
GTGTGCACGTGAATCT	0.23 kcal/mol
GTGTCCACGTGTTAGG	0.12 kcal/mol
GGTTACACGTGGTGTA	0.07 kcal/mol
AGGATCACGTGGATGG	0.11 kcal/mol
TTGTACACGTGCATTT	0.18 kcal/mol
TGGTTCACGTGTCGGG	0.31 kcal/mol
GGTGTCACGTGACGGT	0.25 kcal/mol
TGGCACACGTGAGTAG	0.3 kcal/mol
AGGGGCACGTGAGATG	0.06 kcal/mol

Sequence	relative binding free energy
ATTTTCACGTGGGTCG	0.3 kcal/mol
GGTAGCACGTGGACTG	0.03 kcal/mol
CGTTTCACGTGACTGT	0.47 kcal/mol
TTGTGCACGTGTCCTG	-0.14 kcal/mol
TGGCACACGTGGGCTG	-0.08 kcal/mol
TCTTTCACGTGAGCGG	0.42 kcal/mol
TGAGTCACGTGGCCTG	0.02 kcal/mol
TAGTGCACGTGAAGAT	0.14 kcal/mol
AGGTTCACGTGAGTGT	0.35 kcal/mol
TAAATCACGTGTGGGT	0.13 kcal/mol
TGGAGCACGTGAATTA	0.23 kcal/mol
AGGCGCACGTGCAGTG	-0.18 kcal/mol
CTCTTCACGTGAGGGG	0.25 kcal/mol
TGCGTCACGTGGTATC	0.11 kcal/mol
ACGAGCACGTGCGTTG	0.01 kcal/mol
GTGGACACGTGTGAAT	0.06 kcal/mol
TATTTCACGTGTACTA	0.26 kcal/mol
GTGGGCACGTGATGGC	0.09 kcal/mol
AGGTTCACGTGTGGTG	0.29 kcal/mol
TGCTACACGTGTAAGG	0.21 kcal/mol
TAACACACGTGGTGGT	-0.06 kcal/mol
ACGTCCACGTGTTGGG	0.01 kcal/mol
GATGGCACGTGGGACT	-0.23 kcal/mol
